According to US8110551B2 (priority 2008, dated 2012):

Target: T1, PTEN (Homo sapiens, UniProt P60484)
T1 construct: gift: Gregory Taylor
Format: biochemical
Settings: 0.1 μM PTEN

## [O]=[Mo](=[O])([O-])[O-] [molybdate]
  inhibition of PTEN (in words): failed to inhibit
